# Test results reported in article PMC4336329 (PLoS ONE, 2015).
# The whole screen tested about 310,000 compounds, of which about 14,000 (4.5%) showed an effect of 50% or more. The effect is printed as a negative number. This is one part of the list.
# Biological target: human ether-à-go-go-related gene (hERG) potassium channel (human, UniProt Q12809)
# Assay: primary screen, population patch clamp on CHO cells stably expressing hERG
# 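Note: peak tail current of the secondary pulse compared with the same well before compound.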
# human ether-à-go-go-related gene (hERG) potassium channel, sequence (Q12809 whole entry, looked up): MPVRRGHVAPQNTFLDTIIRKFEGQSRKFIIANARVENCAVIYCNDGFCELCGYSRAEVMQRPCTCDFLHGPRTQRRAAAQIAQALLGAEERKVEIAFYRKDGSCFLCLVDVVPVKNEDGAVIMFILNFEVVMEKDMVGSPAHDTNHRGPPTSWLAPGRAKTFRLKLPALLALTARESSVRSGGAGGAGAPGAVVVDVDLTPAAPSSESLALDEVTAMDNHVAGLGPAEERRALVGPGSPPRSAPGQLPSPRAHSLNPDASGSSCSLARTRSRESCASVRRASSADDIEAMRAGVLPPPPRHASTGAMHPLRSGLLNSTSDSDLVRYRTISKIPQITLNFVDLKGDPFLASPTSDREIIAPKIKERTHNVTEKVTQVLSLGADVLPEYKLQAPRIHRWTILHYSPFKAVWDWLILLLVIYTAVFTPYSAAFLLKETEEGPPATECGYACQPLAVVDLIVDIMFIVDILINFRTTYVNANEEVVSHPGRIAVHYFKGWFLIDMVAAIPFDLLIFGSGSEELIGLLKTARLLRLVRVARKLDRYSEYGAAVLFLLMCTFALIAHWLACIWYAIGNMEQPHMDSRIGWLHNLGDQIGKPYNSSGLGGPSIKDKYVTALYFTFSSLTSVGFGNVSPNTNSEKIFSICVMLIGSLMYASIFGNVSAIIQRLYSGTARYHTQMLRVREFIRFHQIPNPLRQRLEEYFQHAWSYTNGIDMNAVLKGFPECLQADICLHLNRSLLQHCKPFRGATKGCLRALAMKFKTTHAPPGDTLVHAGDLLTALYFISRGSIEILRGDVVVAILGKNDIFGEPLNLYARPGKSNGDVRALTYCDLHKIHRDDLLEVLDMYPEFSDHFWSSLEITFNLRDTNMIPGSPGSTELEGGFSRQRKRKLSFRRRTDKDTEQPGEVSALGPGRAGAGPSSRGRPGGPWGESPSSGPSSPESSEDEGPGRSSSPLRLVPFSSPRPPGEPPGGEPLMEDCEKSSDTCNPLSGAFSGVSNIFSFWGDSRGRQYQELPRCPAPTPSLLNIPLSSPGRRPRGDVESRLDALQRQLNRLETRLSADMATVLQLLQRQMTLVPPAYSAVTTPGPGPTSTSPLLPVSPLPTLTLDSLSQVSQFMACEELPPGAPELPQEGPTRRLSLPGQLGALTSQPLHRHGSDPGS
row,SMILES,"hERG current change (%, negative = inhibition) at 10uM"
1,Cc1sc2ncnc(N3CCC(C(=O)Nc4nc5ccc(Cl)cc5s4)CC3)c2c1C,9.56%
2,COC(=O)CSc1nc(-c2ccccc2)nc2ccc(F)cc12,-4.63%
3,Cc1ccc(O)c(C2=Nc3ccccc3N=C(c3cccc([N+](=O)[O-])c3)C2)c1,20.9%
4,COc1ccc(C(=O)NC(=S)NNC(=O)COc2ccccc2)cc1,-2.47%
5,O=C(CN1C(=O)S/C(=C/c2cc(Br)cs2)C1=O)N1CCOCC1,-40.8%
6,CC(C)COC(=O)NCCOC(=O)Nc1cccc(Cl)c1,-4.46%
7,O=C(CCc1nc2ccccc2s1)OCC(=O)c1ccc[nH]1,-1.38%
8,Cc1noc(C)c1COc1ccccc1C(=O)N(C)CC(=O)Nc1ccc(F)c(F)c1F,-32.8%
9,CN1CCN(C(=O)CCn2nc(-c3ccccc3)c3ccccc3c2=O)CC1,-20.5%
10,O=C1CC(c2ccccc2Cl)CC(O)=C1C=Nc1ccccc1 (stereo not drawn),0.512%
11,Cc1nc2ccc(NC(=O)c3nn(C(C)C)c(=O)c4ccccc34)cc2s1,1.85%
12,Cc1cc(Nc2ccc(Cl)cc2)nc(NCc2ccccc2)n1,-2.44%
13,O=C(CS(=O)(=O)c1ccc(Br)cc1)N1CCOCC1,15.1%
14,COc1cccc(-c2[nH]nc3c2C(c2ccc(C)o2)C(C#N)=C(N)O3)c1 (stereo not drawn),-7.33%
15,COc1ccccc1N(CC(=O)N/N=C(\C)c1ccc(F)cc1)S(=O)(=O)c1ccccc1,27.8%
16,O=C(c1ccc(Cl)c(S(=O)(=O)N2CCCCC2)c1)N1CCCC1,-7.02%
17,O=C(Nc1cccc(C(=O)N2CCOCC2)c1)NC1CCCCC1,-2.64%
18,COc1cc(OC)c(NC(=O)c2cncn2-c2ccc(F)cc2)cc1Cl,-19.7%
19,O=C(NC1CCCc2ccccc21)c1ccccn1 (stereo not drawn),7.04%
20,COC(=O)c1ccc(NC(=S)NC2CC(C)(C)NC(C)(C)C2)cc1,16.1%
21,CC(C)c1ccc(/C=c2\sc3nc(-c4ccncc4)nn3c2=O)cc1,6.39%
22,CCc1nc2sccc2c(=O)n1N,30.1%
23,Cc1nn(Cc2ccc(F)cc2)c(C)c1NC(=O)c1cc(-c2ccc3c(c2)OCO3)on1,-12.3%

row,SMILES,"hERG current change (%, negative = inhibition) at 10uM"
1,COc1ccccc1C/C(N)=N/OC(=O)COc1cccc(C)c1,6.87%
2,O=C(CCl)N(CCc1ccccc1)CCc1ccccc1,-1.08%
3,CCSc1nsc(NC(=O)Nc2ccc(F)cc2F)n1,24.1%
4,Cc1c(NC(=O)NC2CCCCC2)cccc1[N+](=O)[O-],26.5%
5,O=C(Nc1ccccc1-c1nnn(CC(=O)N2CCOCC2)n1)c1ccc(F)cc1,-8.67%
6,Cc1ccc(-c2nc(-c3ccncc3)no2)c(C)c1,14.9%
7,CCOC(=O)c1ccc(N2CCOCC2)c(NC(=O)COCC(=O)O)c1,-2.92%
8,OC1(CNCc2cn[nH]c2-c2cc3ccccc3o2)CCCCC1,-28.7%
9,CCc1ccc(CNCc2ccc(F)cc2)cc1,-21%
10,CN(C)S(=O)(=O)c1ccc(NC(=O)c2ccccn2)cc1,19.7%
11,Cc1ccc(-n2nc3c(c2NC(=O)c2cccs2)CS(=O)(=O)C3)cc1,-12.5%
12,CC(=O)Nc1ccc(C(=O)OCC(=O)c2ccc(F)cc2)cc1,4.26%
13,CC1CCN(C2CCN(S(=O)(=O)c3ccc(F)cc3)CC2)CC1.O=C(O)C(=O)O,-31.7%
14,CCNCc1ccccc1OCc1ccccc1.Cl,-3.77%
15,Cc1ccccc1CSc1nnc([C@@H]2CCCN2)o1.Cl,5.98%
16,COc1ccc(OC(=O)c2cn(C)nc2C(F)(F)F)cc1,-1.05%
17,Cc1ccc2cc(C#N)c(NCCCNC(=O)C3CCCO3)nc2c1 (stereo not drawn),-11.8%
18,Cc1ccc(/C=N/NC(=S)NCCc2ccccc2)s1,27.9%
19,CC(=O)OC(C)(C)C#CCN1CCCC1,5%
20,COc1cccc2oc3ccc(C#CC4(N)CCCCC4)cc3c(=O)c12,-12.2%
21,O=C(O)C(NS(=O)(=O)c1cccc2nsnc12)c1ccccc1 (stereo not drawn),16.1%
22,Cc1ncc([N+](=O)[O-])n1Cc1cccc(F)c1,9.6%
23,Cc1c(-n2cc(C(=O)c3cc(Br)ccc3O)cc(C#N)c2=O)c(=O)n(-c2ccccc2)n1C,-22.6%

row,SMILES,"hERG current change (%, negative = inhibition) at 10uM"
1,CC1CCCCN1S(=O)(=O)c1ccc(C(=O)N(CCCN(C)C)c2nc3ccc(Br)cc3s2)cc1.Cl (stereo not drawn),-37%
2,CCOc1ccc(NC(=O)c2ccc3nccnc3c2)cc1,13.6%
3,CCOC(=O)c1c(C)nc(-c2ccccc2)nc1NC(=O)CC,1.29%
4,CCN(C(=O)COC(=O)CCc1ccccc1OC)c1c(N)n(Cc2ccccc2)c(=O)[nH]c1=O,-4.73%
5,CCOc1ccc(-c2nnn(CC(=O)NCc3ccco3)n2)cc1,-14.4%
6,COc1ccc(-c2csc3nc[nH]c(=O)c23)cc1,-39.5%
7,COc1ccc(OC)c(S(=O)(=O)NCCc2ccccc2)c1,-5.48%
8,COC(=O)c1cc(S(=O)(=O)NCC2CCN(Cc3ccc(F)cc3)CC2)c[nH]1,-57%
9,COCCCN1C(=O)c2ccc(C(=O)Nc3ccccc3OC)cc2C1=O,-17.3%
10,Cc1c(NC(=O)C(C)SC(=S)N2CCCC2)c(=O)n(-c2ccccc2)n1C (stereo not drawn),24.8%
11,CCCC1CC(c2csc(N)n2)CCO1 (stereo not drawn),16.1%
12,C=CCN1C(=O)S/C(=C/c2ccsc2)C1=O,7.94%
13,O=C(Nc1ccc(N2CCCC2)cc1)c1ccc([N+](=O)[O-])cc1Cl,11.6%
14,C=CCN(c1ccc(Cl)cc1)S(=O)(=O)c1cccc(C(=O)O)c1,1.92%
15,CCN(CC(=O)Nc1c(F)cccc1F)C(=O)c1cc(C)nc2ccccc12,9.3%
16,CCCc1nnc(SCC(=O)N2C(C)CCCC2C)n1CCCOC (stereo not drawn),11%
17,COC(=O)c1ccc(S(=O)(=O)NCc2ccco2)n1C,13.6%
18,COc1cccc(-c2nn(Cc3ccccc3)cc2CO)c1,8.47%
19,O=C(NNc1nc2ccc(Cl)cc2s1)c1cc(-c2cccs2)nc2ccccc12,-1.95%
20,CCOC(=O)c1[nH]cnc1C(=O)Nc1ccccc1,8.84%
21,O=C(COc1ccccc1)NCC(=O)N/N=C/c1ccc(Br)cc1,-14.6%
22,COc1ccc(Nc2ncc(C#N)c(N)n2)c(OC)c1,-3.07%
23,O.O=c1ccc2cc(O[C@@H]3O[C@@H](CO)[C@H](O)[C@@H](O)[C@@H]3O)c(O)cc2o1,31%

row,SMILES,"hERG current change (%, negative = inhibition) at 10uM"
1,COc1ccc(S(=O)(=O)N2CCCCCC2)cc1C(=O)N(C)Cc1ccc(Cl)cc1Cl,-23.1%
2,COc1cc(/C=C/C(=O)O)cc(Br)c1O,23.4%
3,CCN(CCCCN1C(=O)c2ccccc2C1=O)c1ccc2c(c1)C(=O)N(C)C2=O,-14.6%
4,Cc1cc(Cl)ccc1NC(=S)NCc1ccco1,8.32%
5,COc1ccc(/C(O)=C2/C(=O)C(=O)N(CCCN(C)C)C2c2cccc(Cl)c2)cc1OC (stereo not drawn),12.9%
6,C[C@H](NS(=O)(=O)c1ccc2c(c1)OCCCO2)C(=O)N1CCN(c2ccc(F)cc2)CC1,-34.8%
7,Cc1cccc(NS(=O)(=O)c2ccc(C)c(C(=O)OCC(=O)Nc3cc(C)on3)c2)c1,10.6%
8,CC(=O)c1cc(C(C)=O)c(C)[n+](C)c1C.[O-][Cl+3]([O-])([O-])[O-],18%
9,Cn1c(=O)c(C(=O)CCl)c(N)n(CC2CC2)c1=O,0.697%
10,O=C(Nc1scc(-c2ccc(F)cc2)c1C(=O)O)c1ccco1,0.298%
11,Cc1ccc(OCCCCN2CCCC(C)C2)c([N+](=O)[O-])c1.O=C(O)C(=O)O (stereo not drawn),-69%
12,COc1ccccc1-c1nnc(SCC(=O)NC2CCS(=O)(=O)C2)n1CCc1ccccc1 (stereo not drawn),8.05%
13,Cn1nnnc1SCC(=O)Nc1ccccc1C(=O)NCc1ccccc1,7.79%
14,CCOC(=O)CN(C(=O)COc1nc(C)cc(C)c1C#N)c1ccc(Cl)cc1,-34.3%
15,COC(=O)C1=C(C)Nc2c(c(=O)n(C)c(=O)n2C)C1c1ccc(C)cc1 (stereo not drawn),20.1%
16,COc1ccc(CCN2C(=O)CC(Nc3ccc(N4CCOCC4)cc3)C2=O)cc1OC (stereo not drawn),2.07%
17,CCNCCOC(c1ccccc1)c1ccccc1.Cl,-31.8%
18,COC(=O)c1ccc(Cl)c(NC(=O)Cc2ccccc2[N+](=O)[O-])c1,12.8%
19,COc1ccc2[nH]c3c(c2c1)CCN1C(=O)N([C@@H](C)C(=O)NCc2ccc(F)cc2)C(=O)[C@]31C,12.7%
20,CC(C)Oc1cccc(C(=O)C2CCCN(C3CCOCC3)C2)c1 (stereo not drawn),-10.5%
21,CCC(CC)C(=O)c1c[nH]c(C(=O)N2CCN(c3ccccc3F)CC2)c1,25.2%
